# Test results published in PubChem BioAssay AID1346428 (National Center for Advancing Translational Sciences (NCATS), 2018).
# “And” between values parts separate entries of the source, which are not always exact repeats. Equal values may be shown once. Out of some 48,000 compounds screened, about 1,200 (2.5%) were called active. Another 2% or so got no clear call; they are omitted.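 The calls were made as follows: active = activation of at least 60% and not above a set upper limit (about 1 call in 100 departs from these limits); inconclusive = activation of 40% to 60%, or above that upper limit; inactive = activation under 40%.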 This is one part of the list.
# Molecular target: Probable G-protein coupled receptor 32 (Homo sapiens) (UniProt O75388)
# Experiment: qHTS for Agonists of Human Resolvin D1 Receptor DRV1; also: 0% is about no effect
# Conditions: CHO-K1 GPR32 beta-arrestin PathHunter luminescence, 90 min; at 76.9 µM; stronger effect = higher value; zero percent set by DMSO-only wells
# Procedure, shortened: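 CHO-K1 cells stably expressing ProLink-tagged GPR32 and Enzyme Activator-tagged beta-arrestin were seeded at 2,500 cells/well overnight, exposed to compounds for 90 min at 37 °C, then read by beta-Gal complementation chemiluminescence after 1 h detection reagent.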
# UniProt O75388, sequence (O75388 whole entry, looked up): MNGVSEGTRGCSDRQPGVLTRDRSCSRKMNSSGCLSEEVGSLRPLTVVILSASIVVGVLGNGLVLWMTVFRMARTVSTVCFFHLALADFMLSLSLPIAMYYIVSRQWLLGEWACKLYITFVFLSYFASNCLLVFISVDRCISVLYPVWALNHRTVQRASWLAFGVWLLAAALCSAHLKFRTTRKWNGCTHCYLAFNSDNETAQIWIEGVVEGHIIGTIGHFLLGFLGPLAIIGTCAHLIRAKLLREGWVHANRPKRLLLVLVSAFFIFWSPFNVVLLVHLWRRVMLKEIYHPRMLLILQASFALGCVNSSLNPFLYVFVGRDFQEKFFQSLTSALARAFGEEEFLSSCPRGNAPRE
row,Structure (SMILES),activation
1,O=P1(N(CCCl)CCCl)NCCCO1 (stereo unspecified),inactive: -7.74% and inactive: 8.76%
2,O=C(COc1cc(Cl)ccc1Cl)Nc1ccc(Cl)cc1C(=O)c1ccccc1,inactive: -14%
3,NC(=O)CS(=O)C(c1ccccc1)c1ccccc1 (stereo unspecified),inactive: -20.6%
4,CN1C(=O)CCS(=O)(=O)C1c1ccc(Cl)cc1 (stereo unspecified),inactive: -30.6% and inactive: -2.32%
5,Cc1cccc(Cc2cnc[nH]2)c1C,inactive: -7.87%
6,Cc1ccc2nc(NC(=O)c3cccn(Cc4ccc(Cl)cc4)c3=O)sc2c1,inactive: 6.54%
7,COC[C@@H](NC(C)=O)C(=O)NCc1ccccc1,inactive: -19.2%
8,O=C1C=CC(=O)C=C1,inactive: 4.86%
9,Cc1ccc(Cl)cc1NC(=O)N(Cc1ccc2c(c1)OCO2)C1CCN(Cc2ccccc2)CC1,inactive: -1.92%
10,CCOP(=S)(OCC)Oc1ccc2c(C)c(Cl)c(=O)oc2c1,inactive: 3.87%
11,CCOC(=O)C(c1c(O)c2ccccc2oc1=O)c1c(O)c2ccccc2oc1=O,inactive: -13.3%
12,Cn1c(=O)n(C)c2cc(CNCCc3ccc(F)cc3)ccc21,inactive: -0.681%
13,Cc1ccc(NC(=O)Cn2cc(C(=O)c3ccccc3)c3ccccc32)cc1,inactive: -16.5%
14,Cc1cccc(-c2nc(CN3C(=O)CN=C(c4ccccc4)c4ccccc43)c(C)o2)c1,active: 62.6%
15,CCOC(=O)NC(O)C(Cl)(Cl)Cl (stereo unspecified),inactive: -17.7%
16,COc1ccc(C(c2ccc(OC)cc2)C(Cl)(Cl)Cl)cc1,inactive: -25.9%
17,Cc1ccc(-n2c(/C=C\c3ccc(F)cc3)nc3ccccc3c2=O)cc1Cl,inactive: -14.6%
18,CC(C)C12CN3CC(C(C)C)(CN(C1)C3c1ccccn1)C2=O (stereo unspecified),inactive: -8.58%
19,CCOc1ccc(NC(=O)Cn2cc(C(=O)c3ccccc3)c3ccccc32)cc1,inactive: -15%
20,COc1ccc(C)cc1NC(=O)N(Cc1ccc2c(c1)OCO2)C1CCN(Cc2ccccc2)CC1,inactive: -5.29%
21,CCOc1ccc(CN(CCc2ccc3c(c2)OCO3)Cc2cccc(OC)c2)cc1,inactive: -7.28%
22,COc1ccccc1N1CCNCC1,inactive: -10.4% and inactive: -4.69%
23,Cc1cccc(Cn2cccc(C(=O)Nc3ccc4c(c3)OCCO4)c2=O)c1,inactive: -9.64%

row,Structure (SMILES),activation
1,CC(=O)c1c(O)c(C)c(O)c(Cc2c(O)c3c(c(C(=O)/C=C/c4ccccc4)c2O)OC(C)(C)C=C3)c1O,inactive: -24.4%
2,CCN(CC)CCSc1nc2ccccc2c(=O)n1-c1ccc(Cl)cc1,inactive: -27.6%
3,CC(=O)[C@H]1CC[C@H]2[C@@H]3CC[C@H]4C[C@H](O)CC[C@]4(C)[C@H]3C(=O)C[C@]12C,inactive: 38.5% and inactive: -6.27%
4,C=C1C[C@@H]2[C@H](CC[C@]3(C)C(=O)CC[C@@H]23)[C@@]2(C)C=CC(=O)C=C12,inactive: 12.4%
5,COc1cccc(NC(=O)Cn2cc(C(=O)c3ccccc3)c3ccccc32)c1,inactive: -18.7%
6,CNC(C)Cc1ccccc1OC (stereo unspecified),inactive: -2.63%
7,C[C@H]1CNCCc2ccc(Cl)cc21,inactive: 9.95%
8,C[C@]12C/C(=C/O)C(=O)C[C@@H]1CC[C@@H]1[C@@H]2CC[C@@]2(C)[C@H]1CC[C@]2(C)O,active: 89%
9,Cc1ccc(Cn2cccc(C(=O)Nc3ccc4c(c3)OCO4)c2=O)cc1,inactive: 20.3%
10,CC1=NN=C(c2ccc(N)cc2)c2cc3c(cc2C1)OCO3,inactive: -1.27%
11,O=C(O)c1cc[c]([Hg][Cl])cc1,inactive: 19.4%
12,CCC(=O)O[C@@H]1C=C2CCC3C(CCC4(C)C3CC[C@@H]4OC(=O)CC)C2CC1 (stereo partly specified),inactive: -4.52%
13,CCN(Cc1ccc(Cl)nc1)/C(=C/[N+](=O)[O-])NC,inactive: -1.95%
14,Cc1ccc(CN2C(=O)c3ccccc3Sc3ccc(C(=O)N4CCC5(CC4)OCCO5)cc32)cc1,inactive: -28.2%
15,CN1CC[C@]23c4c5ccc(O)c4O[C@H]2[C@@H](O)CC[C@H]3[C@H]1C5,inactive: -47.5%
16,C/C(O)=C(\C#N)C(=O)Nc1cc(Br)ccc1Br,inactive: -4.08%
17,Cc1ccccc1-n1nc(C)c2c1NC(=O)CSC2c1ccc(N(C)C)cc1 (stereo unspecified),inactive: -3.65%
18,CCCCCc1nc2ccccc2c(=O)n1-c1ccc(C)cc1,inactive: 26.7%
19,CCCC1CCCCN1 (stereo unspecified),inactive: -9.78%
20,Cc1ccc(NC(=O)CN2C(=O)CN=C(c3ccccc3)c3ccccc32)cc1,inactive: -25.3%
21,CCCC(C)(COC(N)=O)COC(=O)NC(C)C (stereo unspecified),inactive: -6.54% and inactive: 4.27%
22,O=C(N[C@H]1N=C(c2ccccc2F)c2cccc3c2N(CC3)C1=O)c1cc2ccccc2[nH]1,inactive: -1.76%
23,CN1C2CCC(C)(C)C1CC(OC(=O)C(O)(c1cccs1)c1cccs1)C2 (stereo unspecified),inactive: -6.18%

row,Structure (SMILES),activation
1,O=C(CBr)Nc1ccc(Cl)cc1C(=O)c1ccccc1F,inactive: -6.65%
2,CCCCC/C=C\C/C=C\C/C=C\C/C=C\CCCC(=O)NCC(=O)O,inactive: 10.3%
3,COc1cccc(-n2c(/C=C/c3ccccc3O)nc3ccccc3c2=O)c1,inactive: 26.4%
4,CC(O)CN1CCN(CC(=O)[O-])CCN(CC(=O)[O-])CCN(CC(=O)[O-])CC1.[Gd+3] (stereo unspecified),inactive: 5.1%
5,COc1ccc(-n2c(/C=C\c3ccccc3F)nc3ccccc3c2=O)cc1OC,inactive: 11.3%
6,O=C1CN=C(c2ccccc2Cl)c2cc(Cl)ccc2N1Cc1cccc(Cl)c1,inactive: -17.4%
7,C[C@]12CCC(=O)C=C1CC[C@@H]1[C@@H]2CC[C@]2(C)C(=O)CC[C@@H]12,inactive: 48.8%
8,OC(c1ccccc1)(c1ccccc1)C1CCNCC1,inactive: -20.8%
9,CC(C)c1nn2c(=O)cc(COC(=O)Cc3ccccc3)nc2s1,inactive: 3.99%
10,NC1CCc2cc(O)c(O)cc2C1 (stereo unspecified),inactive: -21.5%
11,NC(=O)OCCCc1ccccc1,inactive: 2.78%
12,Nc1c(Cl)c(Cl)c(Cl)c(Cl)c1Cl,inactive: 11.1%
13,COc1cc(OC)c(OC)cc1C=O,inactive: 22.8%
14,Fc1cc(Br)ccc1CBr,inactive: -10.8%
15,NN=C(N)N,inactive: 2.7% and inactive: -2.8% and inactive: -1.03%
16,Clc1ccc(C(c2ccc(Cl)cc2)C(Cl)(Cl)Cl)cc1,inactive: -10.2%
17,Cc1ccc(NC(=O)c2cccn(Cc3ccccc3C)c2=O)c(C)c1,inactive: -7.39%
18,COc1cc(N)c(Cl)cc1C(=O)NC1CN2CCC1CC2 (stereo unspecified),inactive: -3.3%
19,CC(C(O)c1ccccc1)N(C)C/C=C/c1ccccc1 (stereo unspecified),inactive: 1.91%
20,C[N+]1(C)C2CCC1CC(OC(=O)c1c[nH]c3ccccc13)C2 (stereo unspecified),inactive: 6.72%
21,c1ccc2sc(C3(N4CCCCC4)CCCCC3)cc2c1,inactive: -12.2%
22,CCc1cc2c(s1)-n1c(C)nnc1CN=C2c1ccccc1Cl,inactive: 12.2%
23,CC(C)(C)c1ccc(C(=O)Nc2ccc(Cl)cc2C(=O)c2ccccc2)cc1,inactive: -12.5%

row,Structure (SMILES),activation
1,O=C(Nc1cc(C(F)(F)F)cc(C(F)(F)F)c1)c1cccn(Cc2ccccc2Cl)c1=O,inactive: -2.58%
2,O=C(CCCN1CCC(n2c(=O)[nH]c3ccccc32)CC1)c1ccc(F)cc1,inactive: 36.1%
3,C[C@]12CC[C@H]3[C@@H](CCC4=CC(=O)CC[C@@H]43)[C@@H]1CC[C@@H]2OC(=O)CCC1CCCCC1,inactive: 19.3%
4,CCC1(CC)C(=O)NC(=O)NC1=O,inactive: -12.9%
5,CCN1CCCC1CNC(=O)C(O)(c1ccccc1)c1ccccc1 (stereo unspecified),inactive: -13.6%
6,C=Cc1ccc(Cn2c(C)c(CNCCc3cc(OC)ccc3OC)c(C(=O)O)c2C)cc1,inactive: 46%
7,C[C@@H]1CN(C2CCC(C#N)(c3ccc(F)cc3)CC2)CC[C@]1(C(=O)O)c1ccccc1 (stereo partly specified),inactive: -1.48%
8,CCCCc1nn2c(=O)cc(COC(=O)Cc3ccccc3)nc2s1,inactive: 1.5%
9,COc1ccc(OC)c(C(O)C(C)N)c1 (stereo unspecified),inactive: -5.79%
10,CCC(=O)O[C@H]1CC[C@H]2[C@@H]3CCC4=CC(=O)CC[C@]4(C)[C@H]3CC[C@]12C,inactive: 33.5%
11,COc1cccc([C@@]2(O)CCCC[C@@H]2CN(C)C)c1,inactive: -1.89%
12,C[C@]12CCC3C(CC[C@H]4C[C@H](O)CC[C@]34C)C1CC[C@@H]2C(=O)CO (stereo partly specified),inactive: -1.08%
13,CO[C@]12CC[C@@]3(C[C@@H]1[C@](C)(O)C(C)(C)C)[C@@H]1Cc4ccc(O)c5c4[C@@]3(CCN1CC1CC1)[C@H]2O5,inactive: -3.01%
14,Cc1ccccc1Cn1cccc(C(=O)Nc2nc3ccccc3s2)c1=O,inactive: 0.706%
15,O=c1[nH]c2ccccc2c(=O)n1-c1ccc(Cl)c(Cl)c1,inactive: -22.2%
16,Cc1cccc(NC(=O)Cn2cc(C(=O)c3ccccc3)c3ccccc32)c1C,inactive: -3.44%
17,Cc1oc(-c2ccc(Cl)cc2)nc1CN1C(=O)CN=C(c2ccccc2)c2ccccc21,inactive: -13%
18,C=CCC1([C@H](C)CCC)C(=O)NC(=O)NC1=O,inactive: -45.9%
19,CCn1cnc2c(Nc3cccc(Cl)c3)nc(N[C@@H]3CCCC[C@@H]3N)nc21,inactive: -6.02%
20,O=C(Nc1ccon1)c1cccn(Cc2cccc(Cl)c2)c1=O,inactive: -7.35%
21,CC[N+]1(CC)CCC(OC(=O)C(O)(c2ccccc2)c2ccccc2)C1 (stereo unspecified),inactive: -8.81%
22,O=S1(=O)N(CCN2CC=C(c3c[nH]c4cc(F)ccc34)CC2)c2cccc3c2N1CCC3,inactive: -12.7%
